Measured values from PubChem BioAssay (NCI).
Several values for one entry are separate records, joined by “and”; a condition that tells them apart may be missing. Equal values may be shown once.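 Test compounds were applied to cells in 96-well plates for 48 hours at 5 doses. Here, GI50 denotes the concentration required for 50% inhibition of growth. TGI marks complete inhibition of growth.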 Activity calls are given as the source filed them.

Tests used:
Test in all cases: growth of human tumour cells (NCI), 48 h
[1] = tested on: HCC-2998 colon
[2] = tested on: NCI-H522 lung
[3] = tested on: ACHN renal
[4] = tested on: SNB-75 CNS
[5] = tested on: MOLT-4 leukemia
[6] = tested on: SF-268 CNS
[7] = tested on: RXF 393 renal
[8] = tested on: SK-MEL-5 melanoma
[9] = tested on: SW-620 colon
[10] = tested on: 786-0 renal
[11] = tested on: OVCAR-5 ovarian
[12] = tested on: TK-10 renal
[13] = tested on: U251 CNS
[14] = tested on: PC-3 prostate
[15] = tested on: M14 melanoma
[16] = tested on: DU-145 prostate
[17] = tested on: OVCAR-3 ovarian
[18] = tested on: HOP-62 NSCLC
[19] = tested on: MCF7 breast
[20] = tested on: SK-MEL-28 melanoma
[21] = tested on: SF-295 CNS
[22] = tested on: UACC-257 melanoma
[23] = tested on: A498 renal
[24] = tested on: NCI-H226 lung
[25] = tested on: MDA-MB-435
[26] = tested on: NCI/ADR-RES ovarian
[27] = tested on: A549 NSCLC
[28] = tested on: UO-31 renal
[29] = tested on: K-562 leukemia
[30] = tested on: SN12C renal
[31] = tested on: HCT-116 colon
[32] = tested on: UACC-62 melanoma
[33] = tested on: HOP-92 NSCLC
[34] = tested on: RPMI-8226 leukemia
[35] = tested on: CAKI-1 renal
[36] = tested on: SNB-19 CNS
[37] = tested on: HL-60(TB) leukemia

## CCCC(=O)Oc1cc2c(c(OC)c1OC)-c1ccc(SC)c(=O)cc1[C@@H](NC(C)=O)CC2
[1]
  TGI: 0.316 µM
[2]
  TGI: 0.00835 µM
[3]
  TGI: > 100 µM
[4]
  TGI: > 100 µM
[5]
  TGI: 0.0169 µM
[6]
  TGI: > 100 µM
[7]
  TGI: 7.95 µM
[8]
  TGI: 0.0201 µM and 0.0491 µM
[9]
  TGI: > 100 µM
[10]
  TGI: > 100 µM
[11]
  GI50: > 100 µM
  TGI: > 100 µM
[12]
  TGI: > 100 µM
[13]
  TGI: 1.26 µM
[14]
  TGI: > 100 µM
[15]
  TGI: > 100 µM
[16]
  TGI: > 100 µM
[17]
  TGI: 0.00649 µM and 0.0295 µM
[18]
  TGI: > 100 µM
[19]
  TGI: > 100 µM
[20]
  TGI: > 100 µM
[21]
  TGI: 0.573 µM
[22]
  TGI: > 100 µM
[23]
  TGI: 0.822 µM
[24]
  TGI: 0.0166 µM
[25]
  TGI: 0.00477 µM
[26]
  GI50: inactive
[27]
  TGI: > 100 µM
[28]
  TGI: > 100 µM
[29]
  TGI: > 100 µM
[30]
  TGI: > 100 µM
[31]
  TGI: > 100 µM
[32]
  TGI: > 100 µM
[33]
  TGI: 0.945 µM
[34]
  TGI: 13.2 µM
[35]
  TGI: > 100 µM
[36]
  TGI: > 100 µM
[37]
  TGI: 0.00771 µM
